Source: PubChem BioAssay AID1963576 (National Center for Advancing Translational Sciences (NCATS), 2024)
In all, about 46,000 compounds went through this assay and about 60 (0.1%) were called active. Roughly 3% stayed inconclusive and do not appear here. The call rests on the fitted dose curve; in most records, active means well fitted inhibition curve with a large enough effect; inconclusive means small, poorly fitted or top-dose-only effect; inactive means no such curve, though single readings can be large or run the other way. Some of the results follow.

Assay: Primary qHTS assay for Inhibitors of ovarian cancer metastasis using an organotypic tumor microenvironment (TME) model. Further: nearly all actives have a fitted effect of over 65% in size.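 On activity change, negative = inhibition: plate controls were DMSO wells for no effect and tomatine positive control wells for full effect.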
Conditions: SKOV3ip1-GFP adhesion/invasion on 3D omental model, fluorescence; series mostly up to 45.8 µM; activity change, negative = inhibition: at the top concentration
How it was run: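 A 3D layer of primary human omental fibroblasts, mesothelial cells, fibronectin and collagen I, grown 48 hr, received SKOV3ip1-GFP cells in serum-free medium plus compounds at 0.36-46 umol/L. After 2 hr RT and 16 hr 37 C, fixed adherent GFP cells were counted; normalized to DMSO and tomatine.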

Activity change, negative = inhibition, inactive:
Cc1cccc(NC(=O)CSC2=Nc3ccccc3C3=NC(CCC(=O)NCc4ccco4)C(=O)N23)c1 (stereo unspecified) 19.7%, COc1cc(OC)c(NC(=O)Cn2ncn3c(cc4cc(C)ccc43)c2=O)cc1Cl 2.6%, Cn1cc(C=C2C(=O)Nc3cccnc32)c2ccccc21 3.86%, CC(C)(C)OC(=O)N1CCC(c2c(C(=O)N3CCN(Cc4ccccc4)CC3)cnn2-c2cccc(Cl)c2)CC1 -4.96%, COc1ccc(Cn2c(CO)cnc2SCc2ccc(C)cc2)cc1 4.44%, CCSc1nc2ccccc2c(OCc2ccc(Cl)cc2)c1C(=O)OC 2.58%, Cc1ccc(-c2onc(C)c2C)cc1S(=O)(=O)Nc1ccccn1 6.08%, COc1ccc2c(C)c(CC(=O)NCc3ccccc3Cl)c(=O)oc2c1OC 6.27%, COc1ccc(-c2nc3cc(NC(=O)COc4ccccc4C)ccc3o2)cc1 0.408%, CC(=O)N1CCC(N(CCCOC(C)C)C(=O)Nc2ccc(C)c(C)c2)CC1 3.8%, Cc1ccc(NC(=O)c2oc3ccc(S(=O)(=O)N4CCC5(CC4)OCCO5)cc3c2C)cc1Cl -5.41%, CCOC(=O)C(C)NC(=O)c1c2c(nc3ccccc13)C(=O)N(C1CCCCC1)C2 (stereo unspecified) -9.99%, COc1cc(C(c2c(C)[nH][nH]c2=O)c2c(C)[nH][nH]c2=O)ccc1OC(=O)c1ccccc1OC 4.35%, O=C(CN1C(=O)CCSc2ccc(S(=O)(=O)N3CCCC3)cc21)Nc1cccc(F)c1 27.9%, CCc1c(C)sc2c1CCN(Cc1ccc(C#N)cc1)C2c1ccccc1 (stereo unspecified) -1.17%, Cc1cccc(N(C)S(=O)(=O)c2cc(-c3cnc(C4CC4)o3)ccc2C)c1 -4.07%, COc1ccc(Nc2nn3c(=O)c4cc5c(cc4nc3s2)OCO5)c(OC)c1 4.08%, CCc1ccc(C2c3c(-c4ccccc4O)n[nH]c3C(=O)N2Cc2cccnc2)cc1 (stereo unspecified) 2.85%, CC(C)CCNC(=O)C1CCN(C(=O)c2cc3sccc3n2Cc2ccc(Cl)cc2)CC1 4.4%, CCc1ccc(-n2nc(CO)c(C(=O)NC)n2)cc1 6.82%, CCN1CCN(c2ncc3c(n2)CCN(Cc2ccccc2C)C3)CC1 1.22%, CCC(=O)N1CCc2cc(CNS(=O)(=O)c3ccc(CC(C)C)cc3)ccc21 5.39%, CCCCNC(=O)CCCN1C(=O)c2ccccc2Sc2ncccc21 7.79%, CCCS(=O)(=O)N1CC(=O)N(c2ccc(C)c(Cl)c2)C(C)(C(=O)NC2CCCCCC2)C1 (stereo unspecified) -10.9%, COc1cc(CN(C(=O)c2ccccc2F)C2CCS(=O)(=O)C2)cc(OC)c1OC (stereo unspecified) 12.5%, Cc1ccc2c(CC(=O)Nc3ccc(S(=O)(=O)N4CCCCC4)cc3)coc2c1C -7.05%, Cc1cccc(N2CCN(C(=O)Cn3c(-c4cccs4)cc4ccccc43)CC2)c1C 3.03%, CNC(=O)c1c(NC(=O)/C=C/c2ccccc2)sc2c1CCC2 -5.73%, COCCCNC(=O)c1cnc2sc(N3CCCCC3)nn2c1=O 1.88%, Cc1ccc2nc(-c3ccc(NC(=O)COc4ccc(Br)cc4Br)cc3)sc2c1 1.38%, COc1cc(NS(=O)(=O)c2ccc(NC(=O)c3ccc(Cl)cc3Cl)cc2)nc(OC)n1 -0.589%, O=C(NCc1ccc(F)cc1)C(=O)NCC(c1ccc2c(c1)OCO2)N1CCOCC1 (stereo unspecified) -7.66%, CCOC(=O)c1ccc(NC(=O)CC(=O)Nc2ccc3nc4n(c(=O)c3c2)CCCCC4)cc1 23%, Cc1nn2c(C)c(C(=O)NCCc3ccccc3)cnc2c1-c1ccccc1 8.88%, Cc1ccccc1NC(=O)/C(C#N)=C/c1ccc(Cl)cc1Cl 2.82%, CCc1ccc(NCc2cc3cc4c(cc3n(CC(=O)Nc3ccccc3C)c2=O)OCCO4)cc1 18.2%, Cc1ccc(S(=O)(=O)Cc2nc(-c3ccc(C(=O)NCCCOC(C)C)cc3)oc2C)cc1 11.3%, CCCCCCCN(CC)CCCC(O)c1ccc(NS(C)(=O)=O)cc1 (stereo unspecified) -2.78%, Cc1ccc2ncc3c(-c4ccc(F)cc4)nn(CC(=O)Nc4ccccc4C)c3c2c1 22.5%, CC(C)c1ccc(N(CC(=O)O)S(=O)(=O)c2ccc3[nH]c(=O)c(=O)[nH]c3c2)cc1 -10.4%, COc1ccc(Br)cc1CNC(=O)CN1C(=O)c2cccnc2Oc2ccc(C)cc21 -7.33%, Cc1ccc2oc(C(=O)Nc3ccc(S(=O)(=O)Nc4nccc(C)n4)cc3)cc(=O)c2c1 -9.82%, COc1ccc(-c2nc3sc(CCNS(=O)(=O)c4ccccc4)c(C)n3n2)cc1 -9.36%, O=C(NCC1CCN(Cc2ccccc2F)CC1)Nc1ccc(F)c(Cl)c1 -26.8%, Cc1ccc2[nH]c3c(=O)n(CC(=O)Nc4ccc(Br)cc4C)ncc3c2c1 0.796%, CSc1ncc2c(n1)-c1ccccc1N(Cc1ccccc1)S2(=O)=O -3.24%, CCOc1ccc(C(=O)Nc2cc3c(cc2N2CCCC2)n(C)c(=O)c(=O)n3C)cc1OCC 0.0976%, Fc1ccc(Nc2nc3ccccc3n3cnnc23)c(F)c1 3.18%, Cc1ccc(N(CC(C)C)S(=O)(=O)c2nnc(NC(=O)C(C)C)s2)cc1 -14.5%, Cc1nn(C(C)C(=O)Nc2ccccc2C(F)(F)F)c(=O)c2c1sc1ccccc12 (stereo unspecified) 14.1%, Cc1nc2nc(CNC(=O)c3cccc(F)c3)nn2c(C)c1CCC(=O)Nc1cccc(Cl)c1 5.82%, COc1ccc(-n2ccnc(NCCc3ccccc3)c2=O)cc1OC -1.39%, O=C(c1ccc(F)cc1)n1nc(-c2cccnc2)nc1NCc1ccccc1 7.88%, CCSc1nc2ccccc2c(OCc2ccccc2Cl)c1C(=O)OC 1.91%, COc1ccc(NC(=O)c2nc(-c3ccc(C)cc3)n3c2CCCCC3)cc1 -16.6%, COc1ccc(Oc2nc3c(c(=O)n(Cc4ccc(Br)cc4)c(=O)n3C)n2C)cc1 3.64%, CCN(C(=O)C1CCN(S(=O)(=O)c2c(C)noc2/C=C/c2ccc(C)cc2)CC1)c1cccc(C)c1 -9.65%, CN1CCN(CCNC(=O)c2cnn(-c3ccc(Cl)cc3)c2C2CCN(C(=O)OC(C)(C)C)CC2)CC1 1.47%, COc1ccc(Cl)cc1NC(=O)c1cnc2sc(N3CCOCC3)nn2c1=O -8.93%, Cc1ccc2oc(-c3ccc(Cl)c(NC(=O)c4cc5ccccc5o4)c3)nc2c1 17.4%, Cc1ccc(S(=O)(=O)Nc2ccc3nc(-c4cccc(Cl)c4)oc3c2)cc1 2.39%, CC(C)c1onc(-c2c(Cl)cccc2Cl)c1COc1ccc(C=Cc2cccc(C(=O)O)c2)c(Cl)c1 25.7%, O=C(CCCCCn1c(=O)c2sccc2n(Cc2ccccc2Cl)c1=O)NCc1ccc2c(c1)OCO2 -4.75%, COc1ccc(NC(=O)CSc2nc3ccccc3c(=O)n2CCC(=O)NC2CCCCC2)c(OC)c1 -19%, COc1cc(NC(=O)C2Cc3ccccc3N2C(=O)c2ccccc2)cc(OC)c1 (stereo unspecified) -0.743%, Cc1cccc(C(=O)NNc2ncnc3c2cnn3-c2ccc(C)c(Cl)c2)c1 1.64%, CC(CNC(=O)CCCn1c(=O)c2cccn2c2ccc(F)cc21)c1ccccc1 (stereo unspecified) -0.0794%, Cc1ccc(-c2nc(CS(=O)CC(=O)NCCc3ccc(Cl)cc3)c(C)o2)cc1 (stereo unspecified) -5.11%, COc1ccc(N2CCN(c3ncnc4c3nnn4C)CC2)cc1 5.19%, COc1ccc(OCCn2nnc3sc4c(c3c2=O)CCCC4)cc1 -1.49%

outcome, inactive:
CN(C)S(=O)(=O)N1CCC(n2c(C(F)(F)F)nc3cccnc32)CC1, COc1ccc2c(c1)c1c(c(=O)n(CCc3ccccc3)c(=O)n1Cc1cccc(F)c1)n2C, CC(C)CN(CCNC(=O)CCN1N=C(c2ccccc2)CCC1=O)CC(C)C, CCc1cccc(C)c1NC(=O)CSc1nc2ccccc2nc1Cc1ccccc1, COc1ccc(CCNC(=O)CN(c2ccccc2)S(=O)(=O)N(C)C)cc1OC, COC(=O)CC1Oc2ccccc2-n2cc(-c3ccc(F)cc3)nc21 (stereo unspecified), CCOC(=O)c1c(NC(=O)c2cc(-c3ccc(OC)c(OC)c3)on2)sc2c1CCCC2, Cc1ccc(Cl)cc1-n1nnc(-c2nc(-c3ccc4c(c3)OCO4)no2)c1C, CCC(=O)N1c2ccc(S(=O)(=O)CCC(=O)Nc3ccc(OC)cc3OC)cc2CC1C (stereo unspecified), O=C(CCNS(=O)(=O)c1ccc2c(c1)CCN2C(=O)C1CC1)N1CCN(c2cccc(Cl)c2)CC1, COc1ccc(-c2nc(CS(=O)CC(=O)NCCc3ccc(Cl)cc3)c(C)o2)cc1OC (stereo unspecified), CN1C(=O)C2(c3ccccc31)N(c1cccc(C(F)(F)F)c1)C(=O)CS2(=O)=O (stereo unspecified), Oc1c(C(c2ccc(F)cc2)N2CCN(Cc3ccccc3)CC2)sc2nc(-c3ccco3)nn12 (stereo unspecified), Cc1cccc(-c2nc3nc(C)cc(NC(C)c4ccccc4)n3n2)c1 (stereo unspecified), COc1ccc(C(=O)N(Cc2ccco2)Cc2ccc(C)o2)cc1, COc1ccc(NC(=O)C2CCCN(S(=O)(=O)c3c(C)[nH]c(=O)[nH]c3=O)C2)c(OC)c1 (stereo unspecified), CCOc1ccc(NC(=O)Cn2nnc(-c3nc(-c4ccncc4)no3)c2N)cc1, CCCOc1ccc(C(=O)Nc2cc3c(cc2N2CCCCC2)n(C)c(=O)n3C)cc1, CSc1ccc(CCNC(=O)CCCn2c(=O)c3cccn3c3ccccc32)cc1, COc1ccccc1CNC(=O)COCc1cc(-c2cccs2)on1, CC(C)(C)c1ccc(C(=O)Nc2c(C(=O)c3ccc(F)cc3)oc3ccccc23)cc1, COc1cccc(C(=O)N(Cc2nc(-c3ccc(Cl)cc3)no2)C(C)C)c1OC, CCOc1ccc(-c2nonc2NC(=O)c2oc3ccc(CC)cc3c2C)cc1, Cc1ccc(CNC(=O)c2cnc3c(-c4ccc(F)cc4)c(C)nn3c2C)o1, COc1ccc(CCNC(=O)C(C)n2nc(C)c3sc4ccccc4c3c2=O)c(OC)c1 (stereo unspecified), CCC(=O)N1CCc2cc(S(=O)(=O)NC(Cc3ccccc3)C(=O)O)ccc21 (stereo unspecified)
